Assay results: the RNAGym collection of RNA variant scans (doi:10.7554/elife.90254)
The source gives no read counts; variants with many changes may rest on few reads.

B1: LINE1-full (parent)
chain: UACGUAGGUGGUUUUCCCCUGAUAGUGCUAAGGGGGCCUGGAAGUUUGGACUGGGCAGAGCUCAACACAGCGUGGCAAAGUGGCUGUGGCUAGACUGCCUCUCUGGAUUCCUCGUCACUCAGCAGGGCAUCUCUGAGAGAAAUGCC

Variants of: B1
Assay: self-cleavage, relative activity (ratio to wild type); higher = more cleavage; in vitro, sequencing; the parent is a self-cleaving ribozyme

Variant	self-cleavage
A64G U134C A142G	0.21
A64U A65G C66U A78G A117G C123A A138G	0
A64U A67G A77G U134A	0.26
A64U A67U U96G	0.06
A64U A69G U102C	0.09
A64U A69G U130C	0.45
A64U A69G U132C	0.18
A64U A77G A94G	0.28
A64U A77G C113A A129G	0.68
A64U A77G U91C	0.15
A64U A77U A94G U104G	0.17
A64U A78G U102C A121G U134C	0.57
A64U A92G U112G	0.6
A64U A117G G125A	0.6
A64U A124G C146U	0.25
A64U C76U U100C	1.25
A64U C90G A136U	0.16
A64U G72A U96A A117G U132C	0
A64U G80U U102C U109G	0.48
A64U U73C G80A	0.84
A64U U81C A92G	0.21
A64U U81C A140G	0.64
A64U U85C A138U	0.07
A64U U87A U104C	0.04

Variant	self-cleavage
A64U U87C A129G A142G	0
A64U U87G A92G U112C A136G	0
A64U U91A G144A	0.12
A64U U96A A138G	0.02
A64U U96A C118A U132C	0.01
A64U U102C A140U	0.33
A64U U102C A141G	0.44
A64U U108A U143C	0.58
A64U U108C A136G	0.83
A64U U109A A142G	0.34
A64U U109A U115C A117G	0.42
A64U U109C A117U	1
A64U U112C G114U	0.51
A64U U112C U115C A117C	1.01
A64U U130C U134A	0.22
A64U U132C A142G	0.77
A65C A69U G82U U119A	0.03
A65C U87A A142G	0.08
A65C U115A U130A	0.03
A65G A67G A79G U143A	0.37
A65G A67G A140G	0
A65G A67G G89A	0.07
A65G A67G U115A	0
A65G A67G U132C A136G A141G	0

Variant	self-cleavage
A65G A69G A124G C145G	0.66
A65G A69G C101U C146U	0
A65G A69U A141G	0.02
A65G A69U U73C	0
A65G A77G G126A	0.1
A65G A77G U109A A117U	0.06
A65G A77U U108C	0.03
A65G A77U U115C	0.05
A65G A78G A129G	0
A65G A78G A138U A140U	0.02
A65G A78U G122U	0.03
A65G A78U U115A A124U	0.03
A65G A78U U115A A136U A142G	0.08
A65G A79G C133A	0.12
A65G A79G U134A	0.1
A65G A92G C113U	0.02
A65G A92G U115A A117U U119C	0
A65G A121G A136U	0
A65G A121G A142G	0.18
A65G A121U A138G	0
A65G C71U A142G	0
A65G C71U U81A C103U A107U A117U A124U U132C	0.01
A65G C101A G114A	0.03
A65G G72A A78G A121G C131U	0.04

Variant	self-cleavage
A65G G80A U91C	0.02
A65G G80A U143C	0.02
A65G G125A A138G	0
A65G U73A U134C	0.02
A65G U73C A79U C120A	0.04
A65G U73C A92U	0
A65G U73C A124U	0
A65G U73C U104C A121U G125U	0
A65G U73C U130A	0
A65G U81A C110A	0.05
A65G U81C A138G	0
A65G U85A A129U	0.03
A65G U85A A136G A141G	0.17
A65G U85C A138U	0.18
A65G U85C A142G	0
A65G U85C C95A A107G A138G	0
A65G U85C G88A A136G	0.05
A65G U87A A142G	0.05
A65G U102C C120U U134A	0.02
A65G U102C G114A	0.02
A65G U102C U109C A142G	0.5
A65G U109A A136G	0.08
A65G U112C C113A	0.04
A65G U112C U134A	0.07

Variant	self-cleavage
A65G U115A U134G	0.03
A65G U130C U143A	0
A65G U132A U143C	0.09
A65G U134C G137A A141G	0
A65U A67C U85C	0.09
A65U A67U U104C	0.02
A65U A69U U73C A79G U104A	0.05
A65U A77G U91C	0.14
A65U A78G U109A A138U	0
A65U A79G A142G	0.06
A65U A79G U108G U109C	0.33
A65U A92G U115C	0.13
A65U A92U U115C A124U	0.15
A65U A121G U143C	0.07
A65U A124U U134A	0.13
A65U C68U A138G	0.07
A65U C76U U115C C145G	0.28
A65U C101A A141G	0.32
A65U C123U A129G	0.12
A65U G80U A124U	0.27
A65U U73A A77U U115C A117U C128U	0.15
A65U U73A U85A A141G	0.04
A65U U73A U104G	0.13
A65U U73C A79G C84A	0.03

Variant	self-cleavage
A65U U73C G89A	0
A65U U81C A117G	0.38
A65U U81C A129U	0.3
A65U U87C U104A C123A	0.04
A65U U87C U119A	0.02
A65U U91C A129U	0.07
A65U U109A U143C	0.17
C66A A77U A79U	0.02
C66A U85C A117G A124U	0
C66U A69G A124G	0
C66U A92G C111U	0
C66U C103A A121G A142U	0.03
C66U U73C U112C	0.11
C66U U81A C84U	0.04
C66U U81C U96C	0.05
C66U U102C U115C A142G	0.07
C66U U132C U134A	0.02
A67C A69G U130C A136G	0
A67C A69U A92G A140C	0
A67C A77U U102C U130C	0
A67C A78G U109C	0
A67C A136U A142G	0.33
A67C C128G A142G	0.07
A67C U112C A121U	0.03

Variant	self-cleavage
A67G A69G A77C U112C C116U	0
A67G A69U U91C A92U	0
A67G A77G U100A A140G	0.46
A67G A77G U119A A138G	0.95
A67G A78G C98A U109C	0.33
A67G A78G U134A	0
A67G A78U U96A	0.02
A67G A79G G93U U104A	0.02
A67G A107G U112A	0.45
A67G A124G A141G	0.31
A67G A129G A136G	0.49
A67G A129U U143C	0.59
A67G A140G U143C	0.44
A67G A141G U143C	0.14
A67G C68U U73A A77G U81C	0.14
A67G C71G U102C	0
A67G C71U A107G	0.1
A67G C76U U85A	0.04
A67G C76U U134A	0.27
A67G C99U U102A A121G	0.16
A67G C111U U134C	0.43
A67G G70A C110G U112C A117G A142G	0
A67G G72U C146U	0.49
